# Measurements from the supplement of paper PMC8728848.
# Some of the results follow.
# B1: F4 (Escherichia coli), A0A6L9DDF0 (protein)
# chain: MKKTLIALALAASAVSGMAHAWTSGDFNGTVDIGGSIDATNYRQKWEWEVGTGLNGFYNALSELTNNDTKLTITVTGNKPILLGRTKEAFVTPTAGGWGGIPQIAFTDYKGAPVELKNPDGETNKGLAYFVLPMKNADGTEAGSVRVNASYAGAVVEKTSDSSAKLFSAYAGEVIRIFNGGLPVNVTQSELQSGVAAADRTALFGSLGKADLVAQFQAVIPGATVTDGTSSEHCTMRLLASAAYALGIADGQTIEATFNQAVTTSTQWSAPLNVAITYY
# How the values were obtained:
# Assay in all cases: glycan array binding signal (z-score within array); higher = stronger binding
# Settings in all cases: glycan notation: IUPAC condensed, linker removed
# Gal(a1-4)Gal(b1-4)Glc = biological target: Gal(a1-4)Gal(b1-4)Glc
# In short: (§1)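 Glycan array data came from 3228 arrays in the Consortium for Functional Glycomics database, and only arrays with an available protein sequence were kept. Glycan names were put into IUPAC-condensed notation, and columns mapping to the same glycan were averaged. The binding signal is a within-array Z-score, averaged across arrays of one protein sequence run at different concentrations or buffers and across linkers. A negative Z-score can be read as non-binding.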
# Gal(a1-4)Gal(b1-4)GlcNAc = biological target: Gal(a1-4)Gal(b1-4)GlcNAc
# In short: as §1
# Gal(a1-4)GlcNAc = biological target: Gal(a1-4)GlcNAc
# In short: as §1
# Gal(a1-6)Glc = biological target: Gal(a1-6)Glc
# In short: as §1
# Gal(b1-2)Gal = biological target: Gal(b1-2)Gal
# In short: as §1
# Gal(b1-3)Gal = biological target: Gal(b1-3)Gal
# In short: as §1
# Gal(b1-3)GalNAc = biological target: Gal(b1-3)GalNAc
# In short: as §1
# [1] = biological target: Gal(b1-3)GalNAc(b1-3)Gal(a1-4)Gal(b1-4)Glc
# In short: as §1
# [2] = biological target: Gal(b1-3)GalNAc(b1-4)Gal(b1-4)Glc
# In short: as §1
# [3] = biological target: Gal(b1-3)GalNAc(b1-4)[Neu5Ac(a2-3)]Gal(b1-4)Glc
# In short: as §1
# Gal(b1-3)GlcNAc = biological target: Gal(b1-3)GlcNAc
# In short: as §1
# [4] = biological target: Gal(b1-3)GlcNAc(b1-3)Gal(b1-4)Glc
# In short: as §1
# [5] = biological target: Gal(b1-3)GlcNAc(b1-3)Gal(b1-4)GlcNAc
# In short: as §1
# [6] = biological target: Gal(b1-3)[Fuc(a1-4)]GlcNAc
# In short: as §1
# [7] = biological target: Gal(b1-3)[Fuc(a1-4)]GlcNAc(b1-3)Gal(b1-4)GlcNAc
# In short: as §1
# [8] = biological target: Gal(b1-3)[Fuc(a1-4)]GlcNAc(b1-3)Gal(b1-4)[Fuc(a1-3)]GlcNAc
# In short: as §1
# [9] = biological target: Gal(b1-3)[GlcNAc(b1-6)]GalNAc
# In short: as §1
# [10] = biological target: Gal(b1-3)[Neu5Ac(a2-6)]GalNAc
# In short: as §1
# [11] = biological target: Gal(b1-3)[Neu5Ac(a2-6)]GlcNAc(b1-6)Gal(b1-4)Glc
# In short: as §1
# [12] = biological target: Gal(b1-3)[Neu5Ac(b2-6)]GalNAc
# In short: as §1
# [13] = biological target: Gal(b1-4)GalNAc(a1-3)[Fuc(a1-2)]Gal(b1-4)GlcNAc
# In short: as §1
# [14] = biological target: Gal(b1-4)GalNAc(b1-3)[Fuc(a1-2)]Gal(b1-4)GlcNAc
# In short: as §1
# Gal(b1-4)Glc = biological target: Gal(b1-4)Glc
# In short: as §1
# Gal(b1-4)Glc6S = biological target: Gal(b1-4)Glc6S
# In short: as §1
# Gal(b1-4)GlcNAc = biological target: Gal(b1-4)GlcNAc
# In short: as §1
# [15] = biological target: Gal(b1-4)GlcNAc(b1-2)Man(a1-3)[Gal(b1-4)GlcNAc(b1-2)Man(a1-6)]Man(b1-4)GlcNAc(b1-4)GlcNAc
# In short: as §1
# [16] = biological target: Gal(b1-4)GlcNAc(b1-3)Gal(b1-4)Glc
# In short: as §1
# [17] = biological target: Gal(b1-4)GlcNAc(b1-3)Gal(b1-4)GlcNAc
# In short: as §1
# [18] = biological target: Gal(b1-4)GlcNAc(b1-3)Gal(b1-4)GlcNAc(b1-3)Gal(b1-4)GlcNAc
# In short: as §1
# [19] = biological target: Gal(b1-4)GlcNAc(b1-3)Gal(b1-4)[Fuc(a1-3)]GlcNAc(b1-3)Gal(b1-4)[Fuc(a1-3)]GlcNAc
# In short: as §1
# [20] = biological target: Gal(b1-4)GlcNAc(b1-3)GalNAc
# In short: as §1
# [21] = biological target: Gal(b1-4)GlcNAc(b1-3)[Gal(b1-4)GlcNAc(b1-6)]GalNAc
# In short: as §1
# [22] = biological target: Gal(b1-4)GlcNAc(b1-6)Gal(b1-4)GlcNAc(b1-6)GalNAc
# In short: as §1
# [23] = biological target: Gal(b1-4)GlcNAc(b1-6)GalNAc
# In short: as §1
# [24] = biological target: Gal(b1-4)GlcNAc(b1-6)[Gal(b1-3)]GalNAc
# In short: as §1
# Gal3S(b1-3)GalNAc = biological target: Gal3S(b1-3)GalNAc
# In short: as §1
# Gal3S(b1-3)GlcNAc = biological target: Gal3S(b1-3)GlcNAc
# In short: as §1
# [25] = biological target: Gal3S(b1-3)[Fuc(a1-4)]GlcNAc
# In short: as §1
# Gal3S(b1-4)Glc = biological target: Gal3S(b1-4)Glc
# In short: as §1
# Gal3S(b1-4)Glc6S = biological target: Gal3S(b1-4)Glc6S
# In short: as §1
# Gal3S(b1-4)GlcNAc = biological target: Gal3S(b1-4)GlcNAc
# In short: as §1
# Gal3S(b1-4)GlcNAc6S = biological target: Gal3S(b1-4)GlcNAc6S
# In short: as §1
# Gal3S6S(b1-4)GlcNAc = biological target: Gal3S6S(b1-4)GlcNAc
# In short: as §1
# Gal3S6S(b1-4)GlcNAc6S = biological target: Gal3S6S(b1-4)GlcNAc6S
# In short: as §1
# Gal4S(b1-4)GlcNAc = biological target: Gal4S(b1-4)GlcNAc
# In short: as §1
binder,measurement,setting,value
B1,glycan array binding signal (z-score),Gal(a1-4)Gal(b1-4)Glc,0.033
same,glycan array binding signal (z-score),Gal(a1-4)Gal(b1-4)GlcNAc,-0.203
same,glycan array binding signal (z-score),Gal(a1-4)GlcNAc,-0.181
same,glycan array binding signal (z-score),Gal(a1-6)Glc,-0.326
same,glycan array binding signal (z-score),Gal(b1-2)Gal,-0.197
same,glycan array binding signal (z-score),Gal(b1-3)Gal,-0.231
same,glycan array binding signal (z-score),Gal(b1-3)GalNAc,-0.37
same,glycan array binding signal (z-score),[1],-0.292
same,glycan array binding signal (z-score),[2],-0.346
same,glycan array binding signal (z-score),[3],-0.32
same,glycan array binding signal (z-score),Gal(b1-3)GlcNAc,-0.207
same,glycan array binding signal (z-score),[4],-0.278
same,glycan array binding signal (z-score),[5],-0.228
same,glycan array binding signal (z-score),[6],-0.26
same,glycan array binding signal (z-score),[7],-0.232
same,glycan array binding signal (z-score),[8],-0.374
same,glycan array binding signal (z-score),[9],-0.148
same,glycan array binding signal (z-score),[10],0.11
same,glycan array binding signal (z-score),[11],-0.384
same,glycan array binding signal (z-score),[12],0.121
same,glycan array binding signal (z-score),[13],-0.334
same,glycan array binding signal (z-score),[14],-0.334
same,glycan array binding signal (z-score),Gal(b1-4)Glc,-0.253
same,glycan array binding signal (z-score),Gal(b1-4)Glc6S,-0.209
same,glycan array binding signal (z-score),Gal(b1-4)GlcNAc,-0.137
same,glycan array binding signal (z-score),[15],-0.271
same,glycan array binding signal (z-score),[16],-0.276
same,glycan array binding signal (z-score),[17],-0.397
same,glycan array binding signal (z-score),[18],-0.035
same,glycan array binding signal (z-score),[19],-0.237
same,glycan array binding signal (z-score),[20],-0.22
same,glycan array binding signal (z-score),[21],-0.216
same,glycan array binding signal (z-score),[22],-0.235
same,glycan array binding signal (z-score),[23],-0.298
same,glycan array binding signal (z-score),[24],-0.257
same,glycan array binding signal (z-score),Gal3S(b1-3)GalNAc,-0.299
same,glycan array binding signal (z-score),Gal3S(b1-3)GlcNAc,-0.103
same,glycan array binding signal (z-score),[25],-0.02
same,glycan array binding signal (z-score),Gal3S(b1-4)Glc,-0.308
same,glycan array binding signal (z-score),Gal3S(b1-4)Glc6S,0.081
same,glycan array binding signal (z-score),Gal3S(b1-4)GlcNAc,-0.124
same,glycan array binding signal (z-score),Gal3S(b1-4)GlcNAc6S,0.114
same,glycan array binding signal (z-score),Gal3S6S(b1-4)GlcNAc,-0.105
same,glycan array binding signal (z-score),Gal3S6S(b1-4)GlcNAc6S,0.447
same,glycan array binding signal (z-score),Gal4S(b1-4)GlcNAc,-0.043
